# In PubChem BioAssay AID1461 (National Center for Advancing Translational Sciences (NCATS), 2008):
# Where “and” joins values, the source holds several entries; their conditions need not be identical. Equal values may be shown once. Among all 220,000 compounds or so, about 2,300 (1%) were called active. Inconclusive means that the source gave no clear call. Such entries were picked first, then a sample of the others. Calls come from the whole dose curve; as a rule, active = well fitted inhibition curve with a large enough effect; inconclusive = small, poorly fitted or top-dose-only effect, or effect the other way; inactive = no such curve, though single readings can be large or run the other way. A potency beside an inconclusive call is a rough fit, not a confirmed value.
# Molecular target: Neuropeptide S receptor (Homo sapiens) (UniProt Q6W5P4)
# UniProt Q6W5P4, sequence (Q6W5P4 whole entry, looked up): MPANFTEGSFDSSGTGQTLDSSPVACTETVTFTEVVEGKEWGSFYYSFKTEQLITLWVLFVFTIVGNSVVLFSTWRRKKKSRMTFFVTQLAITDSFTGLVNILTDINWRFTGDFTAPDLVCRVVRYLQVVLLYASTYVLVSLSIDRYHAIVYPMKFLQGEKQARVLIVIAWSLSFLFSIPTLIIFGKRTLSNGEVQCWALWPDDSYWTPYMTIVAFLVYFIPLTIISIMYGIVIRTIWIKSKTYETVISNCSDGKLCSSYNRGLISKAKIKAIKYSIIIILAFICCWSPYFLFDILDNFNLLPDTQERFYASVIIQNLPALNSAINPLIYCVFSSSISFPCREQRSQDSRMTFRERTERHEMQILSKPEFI
# Assay: qHTS Assay for Antagonists of the Neuropeptide S Receptor: cAMP Signal Transduction; note: nearly all actives have a fitted effect of over 50% in size
# Conditions: CHO-NPSR cells, cAMP TR-FRET, antagonist mode; activity change, negative = inhibition: at 38.3 µM (top of the series) unless noted
# % is set by controls: 0 for no effect and ±100 for the full control effect; potency is the fitted concentration of half-maximal effect; tags give direction and shape of the fitted curve.
SMILES,Potency,"activity change, negative = inhibition"
Brc1ccc(Nc2nc3ccccc3n3nnnc23)cc1,"inconclusive: 12.6 µM [inhibitor, single point]",
CC(C)[C@H](Nc1nc(-c2ccccc2)nc2c1oc1ccccc12)C(=O)O,inactive,
COc1ccc(-c2nc3oc4cc(OC)ccc4c(=O)c3c(=O)n2Cc2ccco2)cc1,"inconclusive: 12.6 µM [inhibitor, partial curve]",
CC(=O)N1CCc2c(sc(NC(=O)c3ccc([N+](=O)[O-])o3)c2C#N)C1,active: 2.51 µM,
COc1ccc2c(c1)c1c3n2CCN(C)C3=NCC1,inactive,
CCOC(=O)c1c(NC(=O)Cc2cccs2)sc(C(=O)N2CCCCC2)c1C,"inconclusive: 10 µM [inhibitor, single point]",
OCCN1CCN(CCCN2c3ccccc3Sc3ccc(Cl)cc32)CC1,"inconclusive: 25.1 µM [inhibitor, single point] and inconclusive: 10 µM [inhibitor, single point]",
Cc1c(C(=O)NCC2COc3ccccc3O2)oc2ccc(S(=O)(=O)N(C)C3CCCCC3)cc12 (configuration not stated),"inconclusive: 3.98 µM [inhibitor, full curve, poor fit]",
CC(=O)c1cccc(NC(=S)NC(=O)c2ccc(Br)cc2)c1,inactive,
Cc1ccc2c(Cl)cc(Cl)c(OCC(=O)Nc3cc(S(=O)(=O)N(C)C)ccc3C)c2n1,"inconclusive: 10 µM [inhibitor, single point]",
O=Nc1ccc(O)c2ncccc12,"inconclusive: 10 µM [activator, partial curve]",
Cc1ccccc1-c1nnc(Cc2ccccc2)o1,inactive,
FC(F)(F)c1ccc(-c2n[nH]c(=S)o2)nc1,"inconclusive: 10 µM [activator, partial curve]",
C=CCOC(=O)C1=C[C@@H](c2ccc(Br)cc2)[C@H](CCCO)[C@@H](OCC)O1,"inconclusive: 10 µM [activator, single point]",
CCC(=O)Nc1c2c(nn1-c1ccc(F)cc1)CS(=O)C2 (configuration not stated),inactive,
O=c1cc(-c2ccccc2Cl)oc2c(NS(=O)(=O)c3ccccc3OC(F)(F)F)ccc(O)c12,"inconclusive: 12.6 µM [inhibitor, single point]",
CCNC(=S)N1CCN(c2cccc(C(F)(F)F)c2)CC1,inactive,
c1ccc2[nH]c(CN3CCN(c4ncnc5c4oc4ccccc45)CC3)nc2c1,"inconclusive: 10 µM [inhibitor, partial curve]",
Cc1ccc(/C=C/C(=O)N2CCc3ccccc32)o1,inactive,
COc1cc(OC)cc(-c2cc3nc4c(c(N5CCN(c6ncccn6)CC5)n3n2)CCCC4)c1,"inconclusive: 3.16 µM [inhibitor, single point]",
c1ccc(CN2C3=NCCN3c3ccccc32)cc1,inactive,
CC(C)CCNc1cc(=O)n(C)c(=O)n1C,"inconclusive: 12.6 µM [inhibitor, single point]",
CCOC(=O)C1=NN(c2ccc(C)cc2)C2(S1)SC(C(C)=O)=C(C)N2c1ccccc1 (configuration not stated),"inconclusive: 15.8 µM [inhibitor, partial curve]",
Cc1csc(NC(=O)c2nc(-c3ccccc3)n(-c3ccccc3)n2)n1,"inconclusive: 12.6 µM [inhibitor, partial curve]",

SMILES,Potency,"activity change, negative = inhibition"
CS(=O)(=O)N(Cc1ccccc1)c1ccc(C(=O)Nc2ccc3c(c2)OCO3)cc1,"inconclusive: 31.6 µM [inhibitor, single point]",
Cc1ccc(-c2csc(NC(=O)CSC3=NCCS3)n2)cc1,"inconclusive: 20 µM [inhibitor, single point]",
Cc1ccc(C)c(N2CCN(c3nnnn3-c3ccccc3)CC2)c1,"inconclusive: 20 µM [inhibitor, partial curve, poor fit]",
Cc1cc(/C=C(\C#N)C(=O)NCc2cccs2)c(C)n1-c1ccccc1F,"inconclusive: 10 µM [inhibitor, single point]",
CC1(C)Cc2nc3sc4c(SCC(=O)NC(c5ccccc5)c5ccccc5)ncnc4c3cc2CO1,active: 1.26 µM,
Cc1nn(Cc2ccccc2)c2sc(C(=O)NCc3cccnc3)cc12,"inconclusive: 12.6 µM [inhibitor, partial curve]",
Cc1nc(C(=O)Nc2ccccc2)sc1C(=O)Nc1ccccc1,inactive,
CC1CCN(CCCNC(=O)c2ccc3c(=O)n(Cc4ccc(Cl)cc4)c(=S)[nH]c3c2)CC1,"inconclusive: 25.1 µM [inhibitor, single point]",
CCc1nnc(NS(=O)(=O)c2ccc(NC(=S)NC(=O)/C=C/c3ccc(F)cc3)cc2)s1,active: 10 µM,
CCN(CC)c1ccc(C(=O)OCC(=O)N2CCN(c3ccccc3)CC2)cc1,"inconclusive: 10 µM [inhibitor, single point]",
CCN(CC)CC(=O)NC12CC3CC(CC(C3)C1)C2,inactive,
Cc1ccc(-n2c(-c3cn(C)nc3C)n[nH]c2=S)cc1,inactive,
O=c1c2ccccc2nc(COc2ccccc2)n1/N=C/c1ccc(O)cc1O,inactive,
Oc1ccc(Br)cc1/C=N/Nc1ncc(-c2ccccc2)cn1,inactive,
O=C1CCCC2=C1C(c1ccccc1)NC(=S)N2 (configuration not stated),inactive,
Cc1cccc(C)c1Nc1nnc(SCc2nc3ccccc3c(=O)[nH]2)s1,inactive,
CCOC(=O)/C(=N/Nc1ccccc1OC)N1CCCc2ccccc21,"inconclusive: 12.6 µM [activator, single point]",
COc1ccc(N2CCCn3c2nc2c3c(=O)n(Cc3ccccc3)c(=O)n2C)c(OC)c1,inactive,
CC(C)CCNC(=O)C12CN(Cc3ccccc3)CC1C(c1ccc([N+](=O)[O-])cc1)=NO2 (configuration not stated),"inconclusive: 0.02 µM [inhibitor, full curve, poor fit]",
CCOc1cc(NC(=S)NCC2CCCO2)c(OCC)cc1NC(=O)c1ccccc1F (configuration not stated),"inconclusive: 10 µM [inhibitor, single point]",
CC1=C/C(=C\c2ccc3c(c2)OCO3)C(=O)S1,inactive,
CCNc1c([N+](=O)[O-])ncn1C,inactive,
CCCCCCOC(=O)C[N+](C)(C)CCOC1CC2CCC1(C)C2(C)C (configuration not stated),"inconclusive: 12.6 µM [inhibitor, single point]",
CCC1(C)Cc2c(sc3nc(SC)n(Cc4ccccc4)c(=O)c23)CO1 (configuration not stated),"inconclusive: 10 µM [inhibitor, single point]",

SMILES,Potency,"activity change, negative = inhibition"
CCOc1cc(CNc2ccc(N(C)C)cc2)cc(Br)c1OCC(=O)NC(C)(C)C,active: 10 µM,
CC(=O)Nc1ccc(NC(=O)C(C)Oc2ccccc2F)cc1 (configuration not stated),"inconclusive: 5.01 µM [inhibitor, single point]",
COc1cc(/C=N/NC(=O)c2sc3ccccc3c2Cl)ccc1OC(=O)c1ccc([N+](=O)[O-])cc1,inactive,
Cc1snc(S(=O)(=O)Cc2ccccc2Cl)c1C#N,"inconclusive: 12.6 µM [inhibitor, single point]",
COc1ccc(-c2csc(Nc3ccccc3)[n+]2CC(O)c2ccc([N+](=O)[O-])cc2)cc1 (configuration not stated),"inconclusive: 7.94 µM [activator, partial curve]",
CCCCCc1cc(=O)oc2c(C(CCN3CCCC(C)C3)c3ccc(OC)cc3)c(OC)cc(OC)c12 (configuration not stated),"inconclusive: 25.1 µM [inhibitor, single point]",
COC(=O)c1nnn(CC(=O)Nc2cccc(Cl)c2C)c1C(=O)OC,"inconclusive: 20 µM [inhibitor, single point]",
FC(F)(F)c1ccc(-c2csc(-c3ccno3)n2)cc1,"inconclusive: 10 µM [activator, partial curve]",
O=C(COc1ccc(/C=N/NC(=O)c2cc3ccccc3o2)cc1Cl)Nc1ccccc1,active: 3.98 µM,
O=C(Nc1cc(C(F)(F)F)ccc1Cl)C(Sc1nnc(-c2cccs2)o1)c1ccccc1 (configuration not stated),inactive,
CC(=O)c1sc(C(C)(C)C)cc1NC(=O)c1ccccc1C(=O)O,"inconclusive: 2 µM [activator, full curve]",
COc1cccc(OC)c1-c1nn2c(-c3cc(-c4ccccc4)n[nH]3)nnc2s1,"inconclusive: 7.94 µM [inhibitor, partial curve]",
Cc1ccc(S(=O)(=O)NCCCC(=O)C=[N+]=[N-])cc1,inactive,
Cn1c(=O)c2c(nc(NC3CCCCC3)n2CC(O)COc2ccccc2)n(C)c1=O (configuration not stated),"inconclusive: 12.6 µM [inhibitor, partial curve]",
O=C(Cn1c(=O)n(Cc2ccco2)c(=O)c2c3c(sc21)CCCCC3)Nc1ccccc1,"inconclusive: 10 µM [inhibitor, single point]",
Cc1cccc(OCc2nnc(SCc3cc(=O)n4cc(Br)ccc4n3)o2)c1,inactive,
Cc1cccc(/C=C/c2ccccc2)n1,"inconclusive: 10 µM [activator, partial curve]",
Cn1c(=S)[nH]c2c(c1=O)C(C)(C)Cc1ccccc1-2,active: 6.31 µM,
Cn1nc(C(=O)N2CCN(C(c3ccccc3)c3ccccc3)CC2)c2ccccc2c1=O,"inconclusive: 10 µM [activator, single point]",
COc1ccc(/C=N/NC(=O)c2ccoc2C)cc1COc1ccc(Cl)cc1,"inconclusive: 10 µM [inhibitor, partial curve]",
CC(=O)c1cc(NC(=O)c2ccccc2)c(=O)oc1/C=C/N(C)C,active: 10 µM,
CCCCC(=O)Nc1cccc(-c2nc3ncccc3o2)c1,,inactive: 1.86% [at 7.67 µM]
CCOc1ccc(/C=C2\SC(=S)N(C)C2=O)cc1OC,inactive,
NC(=O)CSc1nnc2n(-c3ccccc3)c(=O)c3c4c(sc3n12)CCCCC4,"inconclusive: 3.98 µM [inhibitor, full curve, poor fit]",
